Several values for one entry are separate records, joined by “and”; a condition that tells them apart may be missing. Equal entries are not always repeated. Screen size: about 150,000 compounds; about 190 (0.13%) were called active. This list was built around the results that the source calls inconclusive (neither active nor inactive); the mix of calls is not that of the screen. Calls come from the whole dose curve; as a rule, active = well fitted inhibition curve with a large enough effect; inconclusive = small, poorly fitted or top-dose-only effect; inactive = flat fitted curve, though single readings scatter. Potencies beside an inconclusive call are fits to weak or partial responses and may not hold up.
What follows are compounds tested against Polyunsaturated fatty acid lipoxygenase ALOX12 (Homo sapiens) (UniProt P18054) (assay: qHTS Assay for Inhibitors of 12-hLO (12-human lipoxygenase)). Conditions: purified 12-hLO, xylenol orange hydroperoxide absorbance; series mostly up to 57.1 µM.
Outline: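 150 nM 12hLO, 25 mM Hepes pH 7.0 + 0.01% Triton X-100; cpd preinc 15 min RT; 40 uM arachidonic acid, 30 min RT; Fe-XO 30 min; A573/A405 ratio as read-out.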
% is set by controls: 0 for no effect and ±100 for the full control effect; potency is the fitted concentration of half-maximal effect; tags give direction and shape of the fitted curve.
Note: nearly all actives have a fitted effect of over 55% in size.

Sequence of UniProt P18054 (P18054 whole entry, looked up): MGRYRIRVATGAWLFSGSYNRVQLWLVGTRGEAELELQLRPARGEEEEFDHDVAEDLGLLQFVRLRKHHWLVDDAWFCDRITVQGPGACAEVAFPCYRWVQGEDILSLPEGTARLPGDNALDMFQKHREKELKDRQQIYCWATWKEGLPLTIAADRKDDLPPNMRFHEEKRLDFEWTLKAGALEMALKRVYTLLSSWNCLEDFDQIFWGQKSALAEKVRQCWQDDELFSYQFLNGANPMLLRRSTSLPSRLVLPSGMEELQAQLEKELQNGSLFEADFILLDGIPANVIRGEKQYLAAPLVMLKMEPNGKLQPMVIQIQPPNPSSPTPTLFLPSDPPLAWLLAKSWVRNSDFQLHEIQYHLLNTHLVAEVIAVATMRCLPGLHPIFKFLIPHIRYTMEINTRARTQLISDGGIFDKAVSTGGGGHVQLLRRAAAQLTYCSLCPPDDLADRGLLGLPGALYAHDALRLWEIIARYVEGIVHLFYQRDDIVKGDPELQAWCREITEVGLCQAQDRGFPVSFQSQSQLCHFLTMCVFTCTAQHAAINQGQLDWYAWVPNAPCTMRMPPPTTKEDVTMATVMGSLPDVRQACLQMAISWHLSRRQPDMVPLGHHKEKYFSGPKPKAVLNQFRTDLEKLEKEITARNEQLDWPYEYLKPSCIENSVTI

Activity change, negative = inhibition, inactive:
O=C(O)c1ccc(/C=N\N=C2c3ccccc3-c3ccccc32)cc1 -1.37% [at 11.4 µM], Cc1ccc(S(=O)(=O)N2CCC(C(=O)O)(c3ccccc3)CC2)cc1 0.998% [at 11.4 µM], CN(CCC(=O)O)S(=O)(=O)c1ccccc1 1.1% [at 11.4 µM], O=c1oc2cc(N=Cc3ccc4c(c3)OCO4)ccc2c2ccccc12 -3.55% [at 11.4 µM]

Potency, inactive:
O=C(O)CCC(=O)C(=O)O (tested in a mixture with another compound), CCCCc1ccc(NC(=O)CC(C)(C)C)cc1, O=C(OCc1nnc(-c2ccccc2)o1)c1ccc(S(=O)(=O)NCc2ccco2)cc1, CCC(=O)NC(=S)NNC(=O)c1ccc(OC)cc1, Cc1nnc(SCc2ccccc2F)n1NCc1cccs1, Cc1c(C(=O)O)sc2ncnc(N3CCCCC3C)c12 (centres undefined), Cc1ccc(CSc2nc3c(c(=O)[nH]2)CCC3)cc1, COc1cccc(-n2nnnc2SCC(=O)Nc2nc3c(s2)CCCC3)c1, COCC(=O)NC1CCN(C(=O)NCc2ccccc2)CC1, O=C(CSc1nc2ccc(Nc3nc(N4CCOCC4)nc(N4CCOCC4)n3)cc2s1)N1CCOCC1, COc1ccc(/C=C(/NC(=O)c2ccccc2)c2nc3ccc(Cl)cc3[nH]2)cc1OC, CC[C@H]1C2=C3C(CC[C@H]4C(OCc5ccc(F)cc5C(F)(F)F)OC[C@](C)([C@@H]34)N(C(=O)OC(C)(C)C)C2)C2COC(=O)OCC21 (some centres undefined)

Potency, inconclusive:
COc1ccc(-c2coc3cc(O)cc(O)c3c2=O)cc1 15.8 µM [inhibitor, partial curve, poor fit], COCCNC(=S)N/N=C(\C)c1ccc2cc(OC)ccc2c1 20 µM [inhibitor, partial curve], Cc1csc(NC(=S)Nc2cccc(Cl)c2)n1 22.4 µM [inhibitor, single point], O=C1C=C(O)CC(c2ccc(Cl)cc2)C1 (centres undefined) 39.8 µM [inhibitor, single point], CC(C)(C)c1ccc(C(=O)NC(=S)NCc2cccnc2)cc1 14.1 µM [inhibitor, single point], COC(=O)c1[nH]c2ccc(Br)cc2c1NC(=O)Oc1ccccc1 22.4 µM [inhibitor, single point], CCOc1ccc(S(=O)(=O)NCc2ccco2)c2ccccc12 31.6 µM [inhibitor, single point], Fc1cc(Br)ccc1NC(=S)Nc1ccccc1 39.8 µM [inhibitor, single point], COCCSc1ccccc1C(=O)Nc1nnc(C)s1 35.5 µM [inhibitor, single point], CC12CCC(C(=O)N(CSC(=S)N/N=C\c3ccccc3Cl)C1=O)C2(C)C (centres undefined) 31.6 µM [inhibitor, single point], COc1c(O)c(O)cc2c1oc1c3ccccc3oc(=O)c21 3.16 µM [inhibitor, partial curve, poor fit], O=[N+]([O-])c1cc(C(F)(F)F)ccc1NCCNC(=S)Nc1ccc(Cl)cc1 12.6 µM [inhibitor, partial curve], COc1ccc(C(c2c(O)ccc3ccccc23)N2CCOCC2)c(OC)c1 (centres undefined) 28.2 µM [inhibitor, partial curve], CCn1c(SCC(=O)Nc2sc3c(c2C(N)=O)CCC(C)C3)nnc1-c1ccco1 (centres undefined) 11.2 µM [inhibitor, partial curve], Cc1cccc(NC(=S)NC(=O)CCc2ccccc2)c1C 11.2 µM [inhibitor, partial curve], Cc1ccc(Nc2nc(-c3c(C)nc4ccccn34)cs2)cc1 25.1 µM [inhibitor, partial curve], CCCN(CC1CC1)C(=S)Nc1ccc(Oc2ccccc2)cc1 39.8 µM [inhibitor, single point], O=C(N/N=C/c1ccc(O)c(O)c1)C1c2ccccc2Oc2ccccc21 0.316 µM [inhibitor, full curve, poor fit], CCC(c1nnnn1Cc1ccco1)N(Cc1cc2cc(OC)ccc2[nH]c1=O)C1CCCCC1 (centres undefined) 15.8 µM [inhibitor, partial curve], C=CCNC(=S)N/N=C/c1ccc(N(CC)Cc2ccccc2)cc1 20 µM [inhibitor, partial curve], O=S(=O)(Nc1ccc(-c2nc3cccnc3s2)cc1)c1ccc(Cl)s1 17.8 µM [inhibitor, single point], Oc1c(Cl)cc(Cl)cc1Sc1cc(Cl)cc(Cl)c1O 2 µM [inhibitor, full curve] and 4.47 µM [inhibitor, partial curve] and 708 nM [inhibitor, partial curve], COc1ccc(NS(=O)(=O)c2ccc(NC(=S)NC(=O)c3ccc(F)cc3)cc2)nn1 15.8 µM [inhibitor, partial curve], CC(C)CNC(=S)NC(=O)c1ccc(Cl)cc1 39.8 µM [inhibitor, single point], COc1cc(Br)cc(-c2nc3c(c(=O)[nH]c(=O)n3Cc3ccccc3)n2C)c1O 7.94 µM [inhibitor, partial curve], CC(C)Oc1cccc(C(=O)NC(=S)Nc2cccc(NC(=O)c3ccccc3Cl)c2)c1 28.2 µM [inhibitor, single point], CCOC(=O)C1=C(Cc2ccc(F)cc2)C(=O)c2ccccc2C1=O 22.4 µM [inhibitor, single point], CCCOc1ccc(CCc2n[nH]c(=S)n2Cc2ccccc2)cc1 28.2 µM [inhibitor, partial curve]

— PubChem BioAssay AID1452 (National Center for Advancing Translational Sciences (NCATS), 2008)
